# Measurements published in the supplement of paper PMC12217912.
# This is one part of the list. The full chains were built here from the parent and the listed change. Values near 0.05 are background.
# B1: TEV protease; numbered along this chain (parent)
# chain: MGESLFKGPRDYNPISSSICHLTNESDGHTTSLYGIGFGPFIITNKHLFRRNNGTLVVQSLHGVFKVKDTTTLQQHLVDGRDMIIIRMPKDFPPFPQKLKFREPQREERICLVTTNFQTKSMSSMVSDTSCTFPSGDGIFWKHWIQTKDGQCGSPLVSTRDGFIVGIHSASNFTNTNNYFTSVPKNFMELLTNQEAQQWVSGWRLNADSVLWGGHKVFMVKPEEPFQPVKEATQL
# Variants of: B1
# Test: raw area under fraction-flipped curve 0-4 h after induction (AUC4h, not background-subtracted), DNA-recorder readout of cleavage of the substrate (dimensionless); higher = more cleavage of the substrate by the protease variant
# Conditions: temperature: 34 °C; time window: 0-4 h after rhamnose induction
# 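Further: Bxb1 expression induced with 0.2% (w/v) L-rhamnose at OD600 near 0.5, cultures sampled hourly, flipped fraction per protease–substrate barcode pair counted by paired-end Illumina sequencing.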
Variant,area with substrate CNLYFQS,area with substrate GNLYFQS,area with substrate LNLYFQS,area with substrate MNLYFQS,area with substrate TNLYFQS,area with substrate WNLYFQS,area with substrate HNLYFQS,area with substrate INLYFQS,area with substrate KNLYFQS,area with substrate RNLYFQS,area with substrate YNLYFQS,area with substrate NNLYFQS,area with substrate PNLYFQS,area with substrate QNLYFQS,area with substrate VNLYFQS,area with substrate FNLYFQS,area with substrate SNLYFQS
MGESLFKGPRDYNPISSSICHLTNESDGHTTSLYGIGFGPFIITNKHLFRRNNGTLVVQSLHGVFKVKDTTTLQQHLVDGRDMIIIRMPKDFPPFPQKLKFREPQREERICLVTTNFQTKSMSSMVSDTSCTHPSGDGIFWKHWIQTKDGQCGSPLVSTRDGFIVGIHSASNFTNTNNYFTSVPKNFMELLTNQEAQQWVSGWRLNADSVLWGGHKVFMVKPEEPFQPVKEATQL [F133H],0.0632,0.0801,0.0613,0.0639,0.0785,0.0754,–,–,–,–,–,–,–,–,–,–,–
MGESLFKGPRDYNPISSSICHLTNESDGHTTSLYGIGFGPFIITNKHLFRRNNGTLVVQSLHGVFKVKDTTTLQQHLVDGRDMIIIRMPKDFPPFPQKLKFREPQREERICLVTTNFQTKSMSSMVSDTSCTIPSGDGIFWKHWIQTKDGQCGSPLVSTRDGFIVGIHSASNFTNTNNYFTSVPKNFMELLTNQEAQQWVSGWRLNADSVLWGGHKVFMVKPEEPFQPVKEATQL [F133I],0.0774,0.0766,–,–,0.0539,–,0.0663,0.0662,0.0689,0.0508,0.0589,–,–,–,–,–,–
MGESLFKGPRDYNPISSSICHLTNESDGHTTSLYGIGFGPFIITNKHLFRRNNGTLVVQSLHGVFKVKDTTTLQQHLVDGRDMIIIRMPKDFPPFPQKLKFREPQREERICLVTTNFQTKSMSSMVSDTSCTRPSGDGIFWKHWIQTKDGQCGSPLVSTRDGFIVGIHSASNFTNTNNYFTSVPKNFMELLTNQEAQQWVSGWRLNADSVLWGGHKVFMVKPEEPFQPVKEATQL [F133R],0.0816,0.0884,–,0.103,0.0819,0.0738,–,0.0737,0.0826,0.0711,0.0602,0.0641,0.0594,0.0732,0.0727,–,–
MGESLFKGPRDYNPISSSICHLTNESDGHTTSLYGIGFGPFIITNKHLFRRNNGTLVVQSLHGVFKVKDTTTLQQHLVDGRDMIIIRMPKDFPPFPQKLKFREPQREERICLVTTNFQTKSMSSMVSDTSCTFNSGDGIFWKHWIQTKDGQCGSPLVSTRDGFIVGIHSASNFTNTNNYFTSVPKNFMELLTNQEAQQWVSGWRLNADSVLWGGHKVFMVKPEEPFQPVKEATQL [P134N],0.0399,–,0.0514,0.0615,0.0544,0.056,0.0568,–,–,–,0.0598,–,–,–,–,0.0692,0.057
MGESLFKGPRDYNPISSSICHLTNESDGHTTSLYGIGFGPFIITNKHLFRRNNGTLVVQSLHGVFKVKDTTTLQQHLVDGRDMIIIRMPKDFPPFPQKLKFREPQREERICLVTTNFQTKSMSSMVSDTSCTFVSGDGIFWKHWIQTKDGQCGSPLVSTRDGFIVGIHSASNFTNTNNYFTSVPKNFMELLTNQEAQQWVSGWRLNADSVLWGGHKVFMVKPEEPFQPVKEATQL [P134V],0.0469,0.0592,–,0.061,0.0724,0.0571,0.0613,0.0383,0.0649,0.0574,0.0693,0.0586,0.0655,–,0.0503,0.0682,0.0644
MGESLFKGPRDYNPISSSICHLTNESDGHTTSLYGIGFGPFIITNKHLFRRNNGTLVVQSLHGVFKVKDTTTLQQHLVDGRDMIIIRMPKDFPPFPQKLKFREPQREERICLVTTNFQTKSMSSMVSDTSCTFPCGDGIFWKHWIQTKDGQCGSPLVSTRDGFIVGIHSASNFTNTNNYFTSVPKNFMELLTNQEAQQWVSGWRLNADSVLWGGHKVFMVKPEEPFQPVKEATQL [S135C],0.0689,–,0.0539,0.0459,0.0579,0.0764,0.0506,–,0.0644,–,–,0.0613,0.0522,0.0564,0.0685,0.0634,–
MGESLFKGPRDYNPISSSICHLTNESDGHTTSLYGIGFGPFIITNKHLFRRNNGTLVVQSLHGVFKVKDTTTLQQHLVDGRDMIIIRMPKDFPPFPQKLKFREPQREERICLVTTNFQTKSMSSMVSDTSCTFPWGDGIFWKHWIQTKDGQCGSPLVSTRDGFIVGIHSASNFTNTNNYFTSVPKNFMELLTNQEAQQWVSGWRLNADSVLWGGHKVFMVKPEEPFQPVKEATQL [S135W],0.0537,0.0557,0.0638,0.056,0.0648,0.0602,0.0492,0.0526,–,–,0.0517,–,0.056,–,–,–,0.0651
MGESLFKGPRDYNPISSSICHLTNESDGHTTSLYGIGFGPFIITNKHLFRRNNGTLVVQSLHGVFKVKDTTTLQQHLVDGRDMIIIRMPKDFPPFPQKLKFREPQREERICLVTTNFQTKSMSSMVSDTSCTFPSGIGIFWKHWIQTKDGQCGSPLVSTRDGFIVGIHSASNFTNTNNYFTSVPKNFMELLTNQEAQQWVSGWRLNADSVLWGGHKVFMVKPEEPFQPVKEATQL [D137I],0.0694,–,–,0.0721,0.0522,0.0645,0.0532,–,–,–,0.0488,–,0.0707,–,–,0.0655,0.0533
MGESLFKGPRDYNPISSSICHLTNESDGHTTSLYGIGFGPFIITNKHLFRRNNGTLVVQSLHGVFKVKDTTTLQQHLVDGRDMIIIRMPKDFPPFPQKLKFREPQREERICLVTTNFQTKSMSSMVSDTSCTFPSGDKIFWKHWIQTKDGQCGSPLVSTRDGFIVGIHSASNFTNTNNYFTSVPKNFMELLTNQEAQQWVSGWRLNADSVLWGGHKVFMVKPEEPFQPVKEATQL [G138K],0.0657,0.0605,0.0792,0.063,0.0859,0.0474,0.0468,0.0758,0.0577,–,0.0532,0.067,0.0632,0.032,–,–,0.0711
MGESLFKGPRDYNPISSSICHLTNESDGHTTSLYGIGFGPFIITNKHLFRRNNGTLVVQSLHGVFKVKDTTTLQQHLVDGRDMIIIRMPKDFPPFPQKLKFREPQREERICLVTTNFQTKSMSSMVSDTSCTFPSGDSIFWKHWIQTKDGQCGSPLVSTRDGFIVGIHSASNFTNTNNYFTSVPKNFMELLTNQEAQQWVSGWRLNADSVLWGGHKVFMVKPEEPFQPVKEATQL [G138S],0.0472,0.0535,–,–,0.117,–,0.0614,–,–,0.053,–,0.0583,–,–,–,0.0542,–
MGESLFKGPRDYNPISSSICHLTNESDGHTTSLYGIGFGPFIITNKHLFRRNNGTLVVQSLHGVFKVKDTTTLQQHLVDGRDMIIIRMPKDFPPFPQKLKFREPQREERICLVTTNFQTKSMSSMVSDTSCTFPSGDGCFWKHWIQTKDGQCGSPLVSTRDGFIVGIHSASNFTNTNNYFTSVPKNFMELLTNQEAQQWVSGWRLNADSVLWGGHKVFMVKPEEPFQPVKEATQL [I139C],0.0697,0.105,0.0865,–,–,0.0616,0.0523,0.0792,–,–,0.0521,–,–,–,–,0.0656,0.0696
MGESLFKGPRDYNPISSSICHLTNESDGHTTSLYGIGFGPFIITNKHLFRRNNGTLVVQSLHGVFKVKDTTTLQQHLVDGRDMIIIRMPKDFPPFPQKLKFREPQREERICLVTTNFQTKSMSSMVSDTSCTFPSGDGRFWKHWIQTKDGQCGSPLVSTRDGFIVGIHSASNFTNTNNYFTSVPKNFMELLTNQEAQQWVSGWRLNADSVLWGGHKVFMVKPEEPFQPVKEATQL [I139R],0.0637,–,0.0647,0.0548,0.09,0.0561,–,0.0385,0.0548,–,0.0582,–,0.0588,–,0.0571,–,0.0431
MGESLFKGPRDYNPISSSICHLTNESDGHTTSLYGIGFGPFIITNKHLFRRNNGTLVVQSLHGVFKVKDTTTLQQHLVDGRDMIIIRMPKDFPPFPQKLKFREPQREERICLVTTNFQTKSMSSMVSDTSCTFPSGDGINWKHWIQTKDGQCGSPLVSTRDGFIVGIHSASNFTNTNNYFTSVPKNFMELLTNQEAQQWVSGWRLNADSVLWGGHKVFMVKPEEPFQPVKEATQL [F140N],0.0608,–,–,–,0.0571,0.0525,0.0503,0.0534,–,–,–,–,0.0547,–,0.058,0.0966,0.0588
MGESLFKGPRDYNPISSSICHLTNESDGHTTSLYGIGFGPFIITNKHLFRRNNGTLVVQSLHGVFKVKDTTTLQQHLVDGRDMIIIRMPKDFPPFPQKLKFREPQREERICLVTTNFQTKSMSSMVSDTSCTFPSGDGIQWKHWIQTKDGQCGSPLVSTRDGFIVGIHSASNFTNTNNYFTSVPKNFMELLTNQEAQQWVSGWRLNADSVLWGGHKVFMVKPEEPFQPVKEATQL [F140Q],0.0596,–,–,–,–,–,0.0275,0.0403,–,0.0343,–,–,–,–,–,–,–
MGESLFKGPRDYNPISSSICHLTNESDGHTTSLYGIGFGPFIITNKHLFRRNNGTLVVQSLHGVFKVKDTTTLQQHLVDGRDMIIIRMPKDFPPFPQKLKFREPQREERICLVTTNFQTKSMSSMVSDTSCTFPSGDGITWKHWIQTKDGQCGSPLVSTRDGFIVGIHSASNFTNTNNYFTSVPKNFMELLTNQEAQQWVSGWRLNADSVLWGGHKVFMVKPEEPFQPVKEATQL [F140T],0.0735,–,–,0.0634,0.0513,0.0518,0.0605,–,0.0548,–,–,–,0.0245,–,–,–,0.0391
MGESLFKGPRDYNPISSSICHLTNESDGHTTSLYGIGFGPFIITNKHLFRRNNGTLVVQSLHGVFKVKDTTTLQQHLVDGRDMIIIRMPKDFPPFPQKLKFREPQREERICLVTTNFQTKSMSSMVSDTSCTFPSGDGIYWKHWIQTKDGQCGSPLVSTRDGFIVGIHSASNFTNTNNYFTSVPKNFMELLTNQEAQQWVSGWRLNADSVLWGGHKVFMVKPEEPFQPVKEATQL [F140Y],0.0824,–,0.068,0.0698,0.067,0.0525,0.0443,0.0614,0.0699,–,–,–,0.067,–,–,–,0.064
MGESLFKGPRDYNPISSSICHLTNESDGHTTSLYGIGFGPFIITNKHLFRRNNGTLVVQSLHGVFKVKDTTTLQQHLVDGRDMIIIRMPKDFPPFPQKLKFREPQREERICLVTTNFQTKSMSSMVSDTSCTFPSGDGIFEKHWIQTKDGQCGSPLVSTRDGFIVGIHSASNFTNTNNYFTSVPKNFMELLTNQEAQQWVSGWRLNADSVLWGGHKVFMVKPEEPFQPVKEATQL [W141E],0.056,–,–,–,0.0496,0.0375,0.0524,–,0.0541,0.0566,0.0543,–,–,–,–,0.0443,0.057
MGESLFKGPRDYNPISSSICHLTNESDGHTTSLYGIGFGPFIITNKHLFRRNNGTLVVQSLHGVFKVKDTTTLQQHLVDGRDMIIIRMPKDFPPFPQKLKFREPQREERICLVTTNFQTKSMSSMVSDTSCTFPSGDGIFWAHWIQTKDGQCGSPLVSTRDGFIVGIHSASNFTNTNNYFTSVPKNFMELLTNQEAQQWVSGWRLNADSVLWGGHKVFMVKPEEPFQPVKEATQL [K142A],0.0655,0.0823,0.0693,–,0.0647,0.054,0.0686,0.0661,0.0736,–,0.0811,–,0.0982,–,–,0.073,–
MGESLFKGPRDYNPISSSICHLTNESDGHTTSLYGIGFGPFIITNKHLFRRNNGTLVVQSLHGVFKVKDTTTLQQHLVDGRDMIIIRMPKDFPPFPQKLKFREPQREERICLVTTNFQTKSMSSMVSDTSCTFPSGDGIFWKFWIQTKDGQCGSPLVSTRDGFIVGIHSASNFTNTNNYFTSVPKNFMELLTNQEAQQWVSGWRLNADSVLWGGHKVFMVKPEEPFQPVKEATQL [H143F],0.0671,–,0.0452,–,0.0653,–,–,–,–,–,–,0.0682,0.0491,–,–,–,–
MGESLFKGPRDYNPISSSICHLTNESDGHTTSLYGIGFGPFIITNKHLFRRNNGTLVVQSLHGVFKVKDTTTLQQHLVDGRDMIIIRMPKDFPPFPQKLKFREPQREERICLVTTNFQTKSMSSMVSDTSCTFPSGDGIFWKHWLQTKDGQCGSPLVSTRDGFIVGIHSASNFTNTNNYFTSVPKNFMELLTNQEAQQWVSGWRLNADSVLWGGHKVFMVKPEEPFQPVKEATQL [I145L],0.0648,–,–,–,0.0608,0.0789,–,–,0.0634,–,–,–,0.0538,0.0554,–,–,–
